# Measured values reported in PMC12820563, “FoxP3 forms a head-to-head dimer in vivo and stabilizes its multimerization on adjacent microsatellites”.
# The other results are listed elsewhere or left out.
# Biological target: T1, MBP-FoxP1dN (Mus musculus, UniProt P58462 326-579)
# T1 sequence: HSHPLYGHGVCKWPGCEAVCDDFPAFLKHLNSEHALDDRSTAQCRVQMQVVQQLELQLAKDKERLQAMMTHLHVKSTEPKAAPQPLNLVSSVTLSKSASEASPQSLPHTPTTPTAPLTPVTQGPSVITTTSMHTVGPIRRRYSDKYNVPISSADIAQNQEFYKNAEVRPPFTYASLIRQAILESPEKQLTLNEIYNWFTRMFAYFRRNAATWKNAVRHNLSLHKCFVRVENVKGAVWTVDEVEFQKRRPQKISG
# Experiment: PD-seq (MBP pull-down with sequencing); 20 mM Tris-HCl pH 7.5, 100 mM NaCl, 1.5 mM MgCl2, 0.4 uM protein, 0.1 uM dsDNA library, 30 min, room temperature, amylose pull-down; high values mean tight binding
# Conditions: protein: recombinant; tags: His6-MBP; chain copies: 2; dsDNA, one strand shown
# Procedure, shortened: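 The N-terminus-lacking fragment of mouse FoxP3 or FoxP1 carried a His6-MBP tag and was expressed in E. coli. At 0.4 µM it was incubated with 0.1 µM Klenow-filled degenerate double-stranded DNA library for 30 min at room temperature in Tris pH 7.5 buffer with NaCl and MgCl2, and complexes were caught on amylose resin, washed three times, released with proteinase K, PCR-barcoded and Illumina-sequenced. Binding is reads-per-million enrichment of pull-down over input with replicates pooled.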
row,Sequence,binding signal
1,GATGATTGTTCTCCCAGCTGATGAATTGACCATATCGAGTAAACAAATTTTCCTAATCTTTCTGTTCAAGCGCCATCTAC,1.03 RPM ratio (pull-down/input)
2,GATGATTGTTCTCCCAGCTGATGAATTGGAAATGTCGAGTAAACAAATTTTCCTAATCTTTCTGTTCAAGCGCCATCTAC,0.907 RPM ratio (pull-down/input)
3,GATGATTGTTCTCCCAGCTGATGAATTCGTTTCCTCGAGTAAACAAATTTTCCTAATCTTTCTGTTCAAGCGCCATCTAC,0.835 RPM ratio (pull-down/input)
4,GATGATTGTTCTCCCAGCTGATGAATTGACAGTGTCGAGTAAACAAATTTTCCTAATCTTTCTGTTCAAGCGCCATCTAC,1.05 RPM ratio (pull-down/input)
5,GATGATTGTTCTCCCAGCTGATGAATTCGCTTTATCGAGTAAACAAATTTTCCTAATCTTTCTGTTCAAGCGCCATCTAC,0.948 RPM ratio (pull-down/input)
6,GATGATTGTTCTCCCAGCTGATGAATTTCGGAGTTCGAGTAAACAAATTTTCCTAATCTTTCTGTTCAAGCGCCATCTAC,0.821 RPM ratio (pull-down/input)
7,GATGATTGTTCTCCCAGCTGATGAATTCCGTAACTCGAGTAAACAAATTTTCCTAATCTTTCTGTTCAAGCGCCATCTAC,0.881 RPM ratio (pull-down/input)
8,GATGATTGTTCTCCCAGCTGATGAATTGAAGCGCTCGAGTAAACAAATTTTCCTAATCTTTCTGTTCAAGCGCCATCTAC,0.842 RPM ratio (pull-down/input)
9,GATGATTGTTCTCCCAGCTGATGAATTCATCCAATCGAGTAAACAAATTTTCCTAATCTTTCTGTTCAAGCGCCATCTAC,0.987 RPM ratio (pull-down/input)
10,GATGATTGTTCTCCCAGCTGATGAATTACAACTATCGAGTAAACAAATTTTCCTAATCTTTCTGTTCAAGCGCCATCTAC,1.34 RPM ratio (pull-down/input)
11,GATGATTGTTCTCCCAGCTGATGAATTAGTTCAATCGAGTAAACAAATTTTCCTAATCTTTCTGTTCAAGCGCCATCTAC,0.952 RPM ratio (pull-down/input)
12,GATGATTGTTCTCCCAGCTGATGAATTCAGTCGGTCGAGTAAACAAATTTTCCTAATCTTTCTGTTCAAGCGCCATCTAC,0.885 RPM ratio (pull-down/input)
13,GATGATTGTTCTCCCAGCTGATGAATTTGCTGTGTCGAGTAAACAAATTTTCCTAATCTTTCTGTTCAAGCGCCATCTAC,1.14 RPM ratio (pull-down/input)
14,GATGATTGTTCTCCCAGCTGATGAATTCACGGTCTCGAGTAAACAAATTTTCCTAATCTTTCTGTTCAAGCGCCATCTAC,0.809 RPM ratio (pull-down/input)
15,GATGATTGTTCTCCCAGCTGATGAATTAATATGTTCGAGTAAACAAATTTTCCTAATCTTTCTGTTCAAGCGCCATCTAC,1.14 RPM ratio (pull-down/input)
16,GATGATTGTTCTCCCAGCTGATGAATTCGTGAGGTCGAGTAAACAAATTTTCCTAATCTTTCTGTTCAAGCGCCATCTAC,0.801 RPM ratio (pull-down/input)

row,Sequence,binding signal
1,GATGATTGTTCTCCCAGCTGATGAATTCTTTGATTCGAGTAAACAAATTTTCCTAATCTTTCTGTTCAAGCGCCATCTAC,0.885 RPM ratio (pull-down/input)
2,GATGATTGTTCTCCCAGCTGATGAATTAGGCAGCTCGAGTAAACAAATTTTCCTAATCTTTCTGTTCAAGCGCCATCTAC,0.787 RPM ratio (pull-down/input)
3,GATGATTGTTCTCCCAGCTGATGAATTGTTTCTCTCGAGTAAACAAATTTTCCTAATCTTTCTGTTCAAGCGCCATCTAC,1.33 RPM ratio (pull-down/input)
4,GATGATTGTTCTCCCAGCTGATGAATTATGCAATTCGAGTAAACAAATTTTCCTAATCTTTCTGTTCAAGCGCCATCTAC,1.22 RPM ratio (pull-down/input)
5,GATGATTGTTCTCCCAGCTGATGAATTCAAGATCTCGAGTAAACAAATTTTCCTAATCTTTCTGTTCAAGCGCCATCTAC,0.814 RPM ratio (pull-down/input)
6,GATGATTGTTCTCCCAGCTGATGAATTATAGCGGTCGAGTAAACAAATTTTCCTAATCTTTCTGTTCAAGCGCCATCTAC,0.846 RPM ratio (pull-down/input)
7,GATGATTGTTCTCCCAGCTGATGAATTGACAGCATCGAGTAAACAAATTTTCCTAATCTTTCTGTTCAAGCGCCATCTAC,1.44 RPM ratio (pull-down/input)
8,GATGATTGTTCTCCCAGCTGATGAATTTATTTGGTCGAGTAAACAAATTTTCCTAATCTTTCTGTTCAAGCGCCATCTAC,1.59 RPM ratio (pull-down/input)
9,GATGATTGTTCTCCCAGCTGATGAATTGGTTATTTCGAGTAAACAAATTTTCCTAATCTTTCTGTTCAAGCGCCATCTAC,1.13 RPM ratio (pull-down/input)
10,GATGATTGTTCTCCCAGCTGATGAATTGAGCTTCTCGAGTAAACAAATTTTCCTAATCTTTCTGTTCAAGCGCCATCTAC,0.815 RPM ratio (pull-down/input)
11,GATGATTGTTCTCCCAGCTGATGAATTCCCTGCGTCGAGTAAACAAATTTTCCTAATCTTTCTGTTCAAGCGCCATCTAC,0.907 RPM ratio (pull-down/input)
12,GATGATTGTTCTCCCAGCTGATGAATTGAGCTACTCGAGTAAACAAATTTTCCTAATCTTTCTGTTCAAGCGCCATCTAC,0.853 RPM ratio (pull-down/input)
13,GATGATTGTTCTCCCAGCTGATGAATTCAGGAGATCGAGTAAACAAATTTTCCTAATCTTTCTGTTCAAGCGCCATCTAC,0.782 RPM ratio (pull-down/input)
14,GATGATTGTTCTCCCAGCTGATGAATTCTCGATATCGAGTAAACAAATTTTCCTAATCTTTCTGTTCAAGCGCCATCTAC,0.927 RPM ratio (pull-down/input)
15,GATGATTGTTCTCCCAGCTGATGAATTAAAATGCTCGAGTAAACAAATTTTCCTAATCTTTCTGTTCAAGCGCCATCTAC,1.3 RPM ratio (pull-down/input)
